“And” between values parts separate entries of the source, which are not always exact repeats. Equal entries are not always repeated. Inconclusive means that the source gave no clear call. Such entries were picked first, then a sample of the others. For some assays here: Potencies beside an inconclusive call are fits to weak or partial responses and may not hold up. Some structures have more than one record in an assay (separate samples or runs), and their calls can disagree. The source made the active and inactive calls. Unless noted, calls come from the whole dose curve; as a rule, active = well fitted curve in the direction sought with a large enough effect in the repeat runs; inconclusive = weak or mixed curves; inactive = no such curve, though single readings can be large; an effect the other way counts as inactive or inconclusive.
Tests used:
[1] = qHTS assay to identify small molecule agonists of the retinoic acid receptor (RAR) signaling pathway (AID 1159553); conditions: C3RL4 RARE luciferase reporter, agonist, 6 h; activation: at 73.3 µM (top of the series) unless noted; note: potency is the fitted concentration of half-maximal effect; for activation: % is set by controls: 0 for no effect and ±100 for the full control effect
Procedure, shortened: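 In this cell-based screen, 1,000 C3RL4 cells per well were cultured overnight, dosed with test chemicals in DMSO for 6 hr, and assessed for RARE luciferase luminescence.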

[2] = qHTS assay to identify small molecule antagonists of the estrogen related receptor signaling pathway with the pleiotropic PPARgamma coactivator (PGC) from Tox21 10K library - cell viability counter screen (AID 1224840; active = well fitted cell-killing curve with a large enough effect in the repeat runs, not every such curve was filed as active; inconclusive = weak or mixed curves, or effect the other way; inactive = no such curve, though single readings can be large or run the other way; note: nearly all actives have a fitted effect of over 40% in size; note: potency is the fitted concentration of half-maximal effect)
Procedure, shortened: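 Readout: fluorescence intensity from CellTiter-Fluor after 30 min at 37 C/5% CO2. Preceded by 17.5 h treatment of PGC/ERR cells with DMSO-dissolved compounds, added 6 h post-seeding.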

[3] = target: Thyrotropin receptor (Homo sapiens) (UniProt P16473); assay: qHTS assay to identify small molecule agonists of the thyroid stimulating hormone receptor (TSHR) signaling pathway (AID 1224843; calls by dose curve; note: nearly all actives have a fitted effect of over 45% in size; note: potency is the fitted concentration of half-maximal effect; for activation: % is set by controls: 0 for no effect and ±100 for the full control effect); conditions: TSHR-HEK293 cells, cAMP HTRF, agonist mode, 30 min; activation: at 92.4 µM (top of the series) unless noted
Sequence of UniProt P16473 (P16473 whole entry, looked up): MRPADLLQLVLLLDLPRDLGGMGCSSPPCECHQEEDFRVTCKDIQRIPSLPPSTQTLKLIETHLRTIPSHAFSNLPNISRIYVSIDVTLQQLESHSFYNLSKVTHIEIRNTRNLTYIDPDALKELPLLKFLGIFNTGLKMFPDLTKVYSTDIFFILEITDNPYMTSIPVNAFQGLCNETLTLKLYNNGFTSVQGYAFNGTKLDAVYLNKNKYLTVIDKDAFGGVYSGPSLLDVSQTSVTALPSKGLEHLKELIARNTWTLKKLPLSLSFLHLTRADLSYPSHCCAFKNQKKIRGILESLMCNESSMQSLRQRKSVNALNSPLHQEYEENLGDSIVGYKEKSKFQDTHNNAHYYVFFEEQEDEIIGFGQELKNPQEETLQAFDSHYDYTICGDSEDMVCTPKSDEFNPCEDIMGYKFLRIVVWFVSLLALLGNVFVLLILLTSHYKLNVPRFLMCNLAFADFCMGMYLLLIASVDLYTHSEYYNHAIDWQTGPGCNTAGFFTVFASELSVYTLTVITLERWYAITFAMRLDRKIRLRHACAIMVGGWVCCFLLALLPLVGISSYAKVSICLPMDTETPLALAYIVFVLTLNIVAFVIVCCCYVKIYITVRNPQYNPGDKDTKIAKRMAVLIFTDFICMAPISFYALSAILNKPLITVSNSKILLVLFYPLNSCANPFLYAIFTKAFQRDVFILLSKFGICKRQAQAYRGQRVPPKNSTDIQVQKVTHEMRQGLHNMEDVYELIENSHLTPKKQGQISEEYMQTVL
Procedure, shortened: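 Using 15 concentrations per compound in triplicate, cAMP production was monitored in TSHR-HEK293 cells after 30 min compound incubation at RT; HTRF reagents followed, with fluorescence intensity recorded after 1 h.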

[4] = qHTS assay to identify small molecule agonists of the hypoxia (HIF-1) signaling pathway - cell viability counter screen (AID 1224844; calls by dose curve; note: potency is the fitted concentration of half-maximal effect; nearly all actives have a fitted effect of over 50% in size)
Procedure, shortened: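 In this counter screen, HRE-bla ME-180 cell viability after 17 hrs of compound exposure at 37C was read by CellTiter-Glo luminescence, multiplexed with the beta-lactamase reporter measurement.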

[5] = qHTS assay to identify small molecule antagonists of the estrogen related receptor (ERR) signaling pathway - cell viability counter screen (AID 1224818); note: potency is the fitted concentration of half-maximal effect
Procedure, shortened: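 Viability of ERR cells, CellTiter-Fluor fluorescence; 17.5 h compound exposure at 37 C, DMSO vehicle; 30 min reagent incubation at 37 C/5% CO2.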

[6] = qHTS assay to identify small molecule antagonists of the estrogen related receptor signaling pathway with the pleiotropic PPARgamma coactivator (PGC) cell viability counter screen (AID 1224822; note: potency is the fitted concentration of half-maximal effect)
Procedure, shortened: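 17.5 h compound treatment of PGC/ERR cells at 37 C; readout CellTiter-Fluor fluorescence; run alongside the PGC/ERR antagonist screen to flag cytotoxic compounds.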

[7] = qHTS assay to identify small molecule antagonists of the constitutive androstane receptor (CAR) signaling pathway - cell viability counter screen (AID 1224837); note: potency is the fitted concentration of half-maximal effect; nearly all actives have a fitted effect of over 45% in size
Procedure, shortened: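 CITCO at 50 nM final was added alongside compounds (15 concentrations) to double-stable hCAR/CYP2B6-2.2kb HepG2 cells. Following 23 hr at 37 C, cell viability was quantified by CellTiter-Fluor fluorescence intensity.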

[8] = target: Nuclear receptor subfamily 1 group I member 3 (Homo sapiens) (UniProt Q14994); assay: qHTS assay to identify small molecule antagonists of the constitutive androstane receptor (CAR) signaling pathway (AID 1224838); note: potency is the fitted concentration of half-maximal effect; nearly all actives have a fitted effect of over 40% in size
Sequence of UniProt Q14994 (Q14994 whole entry, looked up): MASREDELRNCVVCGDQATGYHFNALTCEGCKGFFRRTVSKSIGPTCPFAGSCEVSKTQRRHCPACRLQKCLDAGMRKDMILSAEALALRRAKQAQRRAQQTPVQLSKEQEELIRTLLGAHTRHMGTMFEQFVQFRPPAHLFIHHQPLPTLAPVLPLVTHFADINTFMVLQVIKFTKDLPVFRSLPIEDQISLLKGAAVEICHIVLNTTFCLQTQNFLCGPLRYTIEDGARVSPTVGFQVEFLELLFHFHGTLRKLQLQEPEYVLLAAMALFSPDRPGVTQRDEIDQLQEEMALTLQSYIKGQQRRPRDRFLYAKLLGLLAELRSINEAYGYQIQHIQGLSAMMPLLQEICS
Procedure, shortened: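 Inhibition of CITCO-driven (50 nM final) CYP2B6 reporter expression is measured in HepG2 cells stably carrying hCAR. Fifteen compound concentrations are applied for 24 h at 37 C, followed by luciferase luminescence.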

[9] = target: Nuclear receptor subfamily 1 group I member 3 (Homo sapiens) (UniProt Q14994); assay: qHTS assay to identify small molecule agonists of the constitutive androstane receptor (CAR) signaling pathway (AID 1224839); note: potency is the fitted concentration of half-maximal effect; nearly all actives have a fitted effect of over 15% in size
Procedure, shortened: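 HepG2-CYP2B6-hCAR cells, 2500/well, 4 h pre-incubation; compounds 15 conc.; PK11195 0.75 uM final; 24 h, 37 C/5% CO2; ONE-Glo luciferase read.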

[10] = qHTS assay to identify small molecule antagonists of the estrogen related receptor (ERR) signaling pathway (AID 1224819; note: potency is the fitted concentration of half-maximal effect; nearly all actives have a fitted effect of over 50% in size)
Procedure, shortened: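 Seed ERR cells 2,000/well; rest 6 h at 37 C/5% CO2; pin compounds in DMSO; incubate 18 h at 37 C; add One-Glo; wait 30 min at room temperature; measure luminescence.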

[11] = qHTS assay to identify small molecule agonists of the constitutive androstane receptor (CAR) signaling pathway - cell viability counter screen (AID 1224836); note: potency is the fitted concentration of half-maximal effect; nearly all actives have a fitted effect of over 45% in size
Procedure, shortened: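 HepG2-CYP2B6-hCAR, 2500 cells/well, 4 h pre-incubation; cpd 15 conc + PK11195 0.75 uM final; 23 h, 37 C/5% CO2; CellTiter-Fluor, fluorescence.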

[12] = tested on: estrogen-related receptor alpha (ERRalpha) with PGC-1alpha coactivator, human; assay: qHTS assay to identify small molecule antagonists of the estrogen related receptor signaling pathway with the pleiotropic PPARgamma coactivator (PGC) (AID 1224821; calls by dose curve; note: potency is the fitted concentration of half-maximal effect; nearly all actives have a fitted effect of over 50% in size)
Procedure, shortened: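 PGC/ERR reporter cells; 6 h pre-incubation 37 C/5% CO2; pin-tool compound in DMSO, 18 h 37 C; One-Glo added, 30 min RT; luminescence read. qHTS antagonist mode.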

[13] = target: Luciferin 4-monooxygenase (Photinus pyralis) (UniProt P08659); assay: qHTS assay to identify small molecule inhibitors of firefly luciferase (AID 1224835); note: potency is the fitted concentration of half-maximal effect; nearly all actives have a fitted effect of over 25% in size
Sequence of UniProt P08659 (P08659 whole entry, looked up): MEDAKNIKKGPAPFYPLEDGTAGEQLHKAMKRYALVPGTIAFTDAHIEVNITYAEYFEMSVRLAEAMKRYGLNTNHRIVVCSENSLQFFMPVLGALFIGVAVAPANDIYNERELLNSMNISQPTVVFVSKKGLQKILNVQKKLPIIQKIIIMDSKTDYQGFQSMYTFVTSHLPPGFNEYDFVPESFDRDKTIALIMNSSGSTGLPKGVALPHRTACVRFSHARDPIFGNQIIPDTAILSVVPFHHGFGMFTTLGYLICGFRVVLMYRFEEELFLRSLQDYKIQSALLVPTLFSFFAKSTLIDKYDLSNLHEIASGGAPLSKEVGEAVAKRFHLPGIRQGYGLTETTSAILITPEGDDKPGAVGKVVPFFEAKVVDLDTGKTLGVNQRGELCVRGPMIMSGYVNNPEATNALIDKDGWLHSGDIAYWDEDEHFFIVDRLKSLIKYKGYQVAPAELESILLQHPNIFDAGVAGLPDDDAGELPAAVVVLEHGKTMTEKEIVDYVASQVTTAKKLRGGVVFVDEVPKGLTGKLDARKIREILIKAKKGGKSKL
Procedure, shortened: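 Quantitative HTS format; KM concentrations of both substrates. Purified P. pyralis FLuc activity quantified from luminescence images.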

[14] = qHTS assay to identify small molecule agonists of the estrogen related receptor signaling pathway with the pleiotropic PPARgamma coactivator (PGC) from Tox21 10K library (AID 1224842); note: % is set by controls: 0 for no effect and ±100 for the full control effect; nearly all actives have a fitted effect of over 15% in size
Procedure, shortened: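 PGC/ERR reporter cells (NTP line) were seeded 2,000 per well, rested 6 h at 37 C/5% CO2, then pin-dosed with compounds in DMSO for 18 h at 37 C; luciferase read by One-Glo luminescence after 30 min at room temperature.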
Tags give direction and shape of the fitted curve or compound fluorescence and quenching.

C=C1C(C)(C)[C@@]2(Cl)C(Cl)[C@]1(Cl)C(Cl)(Cl)C2(Cl)Cl (stereo partly specified)
Potency [1]: inactive | Potency [2]: inconclusive: 75.6 µM [cytotoxic, single point] | Potency [3]: active: 13.4 µM | Potency [4]: active: 48.1 µM

O=C(c1ccc(OCCN2CCCCC2)cc1)c1c(-c2ccc(O)cc2)sc2cc(O)ccc12
Potency [5]: inconclusive: 22.4 µM [cytotoxic] | Potency [6]: inconclusive: 22.8 µM [cytotoxic] | Potency [7]: inconclusive: 61.1 µM [cytotoxic, partial curve] | Potency [8]: inconclusive: 68.7 µM [inhibitor, single point] and inconclusive: 77 µM [inhibitor, single point] | Potency [2]: active: 24.4 µM and active: 30.6 µM and inconclusive: 29.8 µM [cytotoxic, partial curve, poor fit] | Potency [4]: active: 43.7 µM and active: 49 µM

Oc1ccc(-c2ccccc2)c(Cl)c1
Potency [1]: inconclusive: 15.4 µM [activator] | Potency [9]: inconclusive: 54.5 µM [activator, partial curve] | Potency [4]: inconclusive: 61.6 µM [cytotoxic, single point]

O=C1CCC/C=C\CCCCCCCCCC1
Potency [1]: inconclusive: 54.5 µM [inhibitor, partial curve] | Potency [3]: inconclusive: 38.6 µM [inhibitor, partial curve] | Potency [4]: inconclusive: 61.7 µM [cytotoxic, single point]

CCCSS/C(CCO)=C(\C)N(C=O)Cc1cnc(C)nc1N
Potency [1]: inconclusive: 29.8 µM [inhibitor, partial curve] | Potency [8]: inconclusive: 29.8 µM [inhibitor]

COc1ccccc1OCCNCC(O)COc1cccc2[nH]c3ccccc3c12 (stereo unspecified)
Potency [5]: inconclusive: 27.6 µM [cytotoxic] | Potency [10]: inconclusive: 21.1 µM [inhibitor, single point] | Potency [6]: inconclusive: 27.6 µM [cytotoxic] | Potency [11]: inconclusive: 26.6 µM [cytotoxic, partial curve] | Potency [7]: inconclusive: 26.6 µM [cytotoxic, partial curve] | Potency [2]: inconclusive: 33.5 µM [cytotoxic, partial curve] | Potency [4]: inconclusive: 23.9 µM [cytotoxic, partial curve]

Brc1ccccc1-c1ccccc1
Potency [5]: inactive | Potency [12]: inconclusive: 63.5 µM [inhibitor] | Potency [6]: inconclusive: 63.5 µM [cytotoxic] | Potency [13]: inconclusive: 67.2 µM [inhibitor, partial curve, poor fit] | Potency [3]: inconclusive: 21.7 µM [inhibitor, full curve, poor fit] | Potency [4]: active: 36.8 µM

c1ccc(Sc2ccccc2)cc1
Potency [1]: inconclusive: 77 µM [inhibitor, single point] | Potency [3]: inconclusive: 15.4 µM [inhibitor, partial curve]

O=c1c(O)c(-c2ccc(O)cc2)oc2cc(O)cc(O)c12
Potency [1]: inconclusive: 2.72 µM [activator, full curve] and active: 18.4 µM | Potency [9]: inconclusive: 68.3 µM [activator, single point] | Potency [14]: inactive | activation [3]: inconclusive: -7.49% [at 42.5 µM] | Potency [4]: inconclusive: 14.8 µM [rising, full curve]

CCCCOCCOCCOCCO
Potency [1]: inconclusive: 15.2 µM [activator, single point] and inconclusive: 39.4 µM [inhibitor, single point] | activation [3]: inconclusive: -27.7%

CN(C)CCCN1c2ccccc2CCc2ccc(Cl)cc21
Potency [5]: inconclusive: 33.5 µM [cytotoxic, single point] | Potency [6]: inconclusive: 32.2 µM [cytotoxic] | Potency [11]: active: 48.6 µM and active: 29.8 µM | Potency [7]: active: 48.6 µM and inconclusive: 26.6 µM [cytotoxic, partial curve] | Potency [8]: inconclusive: 68.6 µM [inhibitor, single point] and inconclusive: 29.8 µM [inhibitor, partial curve] | Potency [2]: active: 54.5 µM | activation [3]: inconclusive: -31% | Potency [4]: inconclusive: 23.9 µM [cytotoxic, partial curve]

COc1ccc(-c2ccc3cc(C(=O)O)ccc3c2)cc1C12CC3CC(CC(C3)C1)C2
Potency [1]: active: 0.0298 µM | Potency [8]: inconclusive: 7.5 µM [inhibitor, full curve] | Potency [2]: inactive

C[C@]12CC[C@@H]3c4ccc(O)cc4CC[C@H]3[C@@H]1CCC2=O
Potency [6]: inactive

Cc1cc(OCCOCC[N+](C)(C)Cc2ccccc2)ccc1C(C)(C)CC(C)(C)C
Potency [1]: inconclusive: 30.5 µM [inhibitor, partial curve] and inconclusive: 29.8 µM [inhibitor, partial curve] | Potency [8]: inconclusive: 68.2 µM [inhibitor, single point] | Potency [2]: inconclusive: 18.8 µM [cytotoxic, partial curve] | Potency [4]: active: 24.4 µM and active: 23.9 µM

Reference: PubChem BioAssay (Tox21)
